According to PubChem BioAssay AID651820 (National Center for Advancing Translational Sciences (NCATS), 2012):
In all, about 340,000 compounds went through this assay and about 12,000 (3.5%) were called active. The inconclusive results got no clear call from the source; some entries with a clear call stand among them for comparison. The call rests on the fitted dose curve; in most records, active means well fitted inhibition curve with a large enough effect; inconclusive means small, poorly fitted or top-dose-only effect, or another doubt; inactive means no such curve, though single readings can be large or run the other way. No potency is given beside an inconclusive call; the fits are too rough.

experiment: qHTS Assay for Inhibitors of Hepatitis C Virus (HCV); settings: Huh7.5.1 HCVcc-Cre (HCVcc is cell-culture hepatitis C virus) infection, luciferase reporter, 44 h; activity change, negative = inhibition: at 41.8 µM (top of the series) unless noted
Method in brief: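 Seed cells (1,000/well) for 4 h; treat with compound and infect with HCVcc-Cre, moi about 0.5. Incubate 44 h, then detect luciferase activity.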
On the % scale 0 is the no-effect control and ±100 the full control effect; potency means the concentration at half of the fitted maximal effect; tags describe the fitted curve by direction and shape.

| Structure (SMILES) | Potency | activity change, negative = inhibition |
| --- | --- | --- |
| CC(=O)c1ccc(NC(=O)c2ccc3nc(C)sc3c2)cc1 | inactive | – |
| CCO[C@@H]1OC(C(=O)N2CCN(Cc3ccccc3)CC2)=C[C@H](c2cn(C(C)=O)c3ccccc23)[C@H]1CCCO | – | inactive: -8.73% [at 8.37 µM] |
| COc1ccc(S(=O)(=O)N(CCc2ccccc2)CC(=O)N/N=C/c2ccc3c(c2)OCO3)cc1 | inconclusive [inhibitor, partial curve] | – |
| O=C(Nc1ccc(N2CCOCC2)cc1)c1ccc(S(=O)(=O)NCc2ccco2)cc1 | inconclusive [inhibitor, partial curve, poor fit] | – |
| COc1ccc(N(CCOc2ccccc2)S(=O)(=O)c2ccccc2)cc1 | inactive | – |
| Nc1ccn([C@@H]2O[C@H](CO)[C@@H](O)[C@@H]2O)c(=O)n1 | inconclusive [inhibitor, full curve, poor fit] | – |
| Cc1ccc(-c2nc(C(=O)NCCCN3CCOCC3)cc3c2[nH]c2ccccc23)cc1 | active: 11.2 µM | – |
| COc1cccc(/C=N/n2c(-c3n[nH]c4c3CCC4)n[nH]c2=S)c1O | inactive | – |
| O=C(NC(=S)N1CCN(c2nc(-c3ccccc3)cs2)CC1)c1cccnc1 | inactive | – |
| COc1cc(C)c(C(=O)CC(=O)c2c(C)cc(OC)cc2C)c(C)c1 | inconclusive [inhibitor, partial curve, poor fit] | – |
| CCN(CC)S(=O)(=O)c1cccc(NC(=O)CCNC(=O)NC23CC4CC(CC(C4)C2)C3)c1 | inconclusive [inhibitor, single point] | – |
| CC/C(=N\N=C1\SC(C)C(=O)N1Cc1ccco1)c1ccccc1 (stereo not drawn) | inactive | – |
| O=C(Nc1ccc2c(c1)oc1ccccc12)c1ccncc1 | inconclusive [inhibitor, partial curve] | – |
| Cc1ccc(NC(=O)C2C3C=CC4(CN(Cc5cccnc5)C(=O)C24)O3)cc1F (stereo not drawn) | inactive | – |
| COc1ccc(CN2CCN(C(=O)C3CCC(CNS(=O)(=O)c4ccc(C)cc4)CC3)CC2)c(OC)c1OC (stereo not drawn) | inconclusive [inhibitor, partial curve, poor fit] | – |
| COc1cccc(C(=O)NCC(=O)N/N=C/c2c(C)[nH]c3ccccc23)c1 | inconclusive [inhibitor, single point] | – |
| Cc1ccc(C(=O)CSc2nnc(-c3ccc4[nH]c(C)c(C)c4c3)o2)cc1C | inconclusive [inhibitor, full curve, poor fit] | – |
| Cc1noc(C)c1COC(=O)c1cccc(S(=O)(=O)N2CCCCCC2)c1 | active: 2.24 µM | – |
| COC(=O)c1ccc(-c2ccc(/C=N/NC(=O)CC3(C)OCCCO3)o2)cc1 | inactive | – |
| Cc1cc(C)c(C(=O)CSc2nc(C)cc(C)c2C(N)=O)c(C)c1 | inconclusive [inhibitor, partial curve] | – |
| Cc1ccc(S(=O)(=O)Nc2ccc(NC(=O)Nc3ccc(F)cc3F)cc2)cc1 | inconclusive [inhibitor, single point] | – |
| CN(CCn1ccnc1)Cc1cn(-c2ccccc2)nc1-c1ccc2c(c1)OCO2 | inactive | – |
| CC(C)(C)c1ccc(OCCCNCc2ccccc2)cc1 | active: 11.2 µM | – |

| Structure (SMILES) | Potency | activity change, negative = inhibition |
| --- | --- | --- |
| COC(=O)CNC(c1ccccc1)c1cc(Br)ccc1NC(C)=O (stereo not drawn) | inactive | – |
| CC(C)CC(=O)NC(c1ccccc1Cl)c1c(O)ccc2ccccc12 (stereo not drawn) | inconclusive [inhibitor, partial curve] | – |
| Cc1ccc(S(=O)(=O)N2CCCN(S(=O)(=O)c3ccccc3Br)CC2)cc1 | inconclusive [inhibitor, single point] | – |
| CN(C)c1nc(N/N=C\c2ccc(Cl)c([N+](=O)[O-])c2)nc(Nc2ccc(F)cc2)n1 | active: 22.4 µM | – |
| Cc1cc(N/N=C/c2cccc([N+](=O)[O-])c2)nc(-n2nc(C)cc2C)n1 | inconclusive [inhibitor, single point] | – |
| Cc1nc2c(cnn2-c2ccccc2Cl)c(=O)n1-c1ccc(C(C)C)cc1 | inconclusive [inhibitor, single point] | – |
| CCCc1ccc(S(=O)(=O)NCc2nnc(SC)n2C)cc1 | inactive | – |
| O=C(Nc1ccc(Cl)c(Cl)c1)c1ccc2c(c1)OCO2 | inactive | – |
| COc1cc2oc3ccccc3c2cc1N(CC(=O)N1CCCCC1)S(=O)(=O)c1ccc(C)cc1 | inconclusive [inhibitor, single point] | – |
| CC(=O)c1ccc(NC(=O)Nc2ccc(Cl)cc2)cc1 | inconclusive [inhibitor, single point] | – |
| Oc1ccc(/C=N\Nc2nncc(-c3ccccc3)n2)cc1 | inconclusive [inhibitor, partial curve] | – |
| CCc1ccc(CN(C(=O)COc2c(C)cccc2C)C2CCS(=O)(=O)C2)cc1 (stereo not drawn) | inactive | – |
| C=CCn1c(SCC(=O)c2c(N)n(C3CC3)c(=O)[nH]c2=O)nnc1-c1ccc(OC)cc1 | inconclusive [inhibitor, single point] | – |
| Cc1ccc2cc(CN(CCN3CCCC3)C(=O)Nc3ccccc3)c(=O)[nH]c2c1C | inactive | – |
| COC(=O)CN1C(=O)Nc2ccc(Br)cc2C1c1ccccc1Cl (stereo not drawn) | inconclusive [inhibitor, partial curve] | – |
| CCOc1ccc(/C=C/C(O)=C2/C(=O)NC3(C)CC2c2ccccc2O3)cc1OC (stereo not drawn) | inconclusive [inhibitor, partial curve] | – |
| COc1cc(/C=C/C(=O)c2ccc(NS(=O)(=O)c3ccc(C)cc3)cc2)cc(OC)c1O | inconclusive [inhibitor, partial curve] | – |
| O=C(N/N=C/c1sc(N2CCOCC2)nc1-c1ccccc1)c1cccc(S(=O)(=O)N2CCOCC2)c1 | inconclusive [inhibitor, full curve] | – |
| COc1ccccc1Nc1nc(N)nc(CN2CCN(c3ccccc3)CC2)n1 | inconclusive [inhibitor, single point] | – |
| Cc1ccc(NC(=O)c2ccc3c(c2)N(CC(=O)NC(C)C)C(=O)C(C)(C)O3)cc1 | inconclusive [inhibitor, partial curve] | – |
| COc1ccc2nc(NC(=O)CSc3nc(SC)ns3)sc2c1 | inconclusive [inhibitor, partial curve] | – |
| O=C(Nc1cc(S(=O)(=O)N2CCCCC2)ccc1N1CCOCC1)c1ccc(F)cc1 | inactive | – |
| c1ccc(Nc2nc(NCc3ccco3)c3ccccc3n2)cc1 | active: 3.98 µM | – |

| Structure (SMILES) | Potency | activity change, negative = inhibition |
| --- | --- | --- |
| CC1=C(C)CC(C(=O)NNC(=O)c2csc(C)c2C)C(C(=O)O)C1 (stereo not drawn) | inactive | – |
| CCOCCCNC(=O)c1cc2c(=O)n(CC)c3ccccc3c2s1 | inconclusive [inhibitor, partial curve] | – |
| COc1ccc(C2C3=C(Nc4ncnn42)c2ccccc2CCC3)cc1 (stereo not drawn) | inactive | – |
| COc1ccc(-c2nc3c4c(ncn3n2)-c2ccccc2CC42CCCC2)cc1 | inconclusive [inhibitor, single point] | – |
| CCn1c(SCc2ccccc2)nnc1-c1cccnc1 | inactive | – |
| CC(=O)/C(N=Nc1cc2c(c([N+](=O)[O-])c1C)C(C)(C)CC2(C)C)=C(\C)O | inconclusive [inhibitor, single point] | – |
| O=C(C1CCC1)N1CCN(S(=O)(=O)c2ccc(Br)cc2Cl)CC1 | inconclusive [inhibitor, single point] | – |
| COc1ccc(CC2S/C(=N/N=C/c3ccccc3O)NC2=O)cc1 (stereo not drawn) | inconclusive [inhibitor, single point] | – |
| Nc1cc(=O)[nH]c(SCC(=O)Nc2ccc(Cl)c(Cl)c2)n1 | inactive | – |
| COc1ccc(C(=O)N2CCC(C(=O)c3c(C)cc(C)cc3C)CC2)cc1 | inconclusive [inhibitor, single point] | – |
| O=C(CN1CCC(NC(=O)c2ccco2)CC1)Nc1cccc2ccccc12 | inactive | – |
| CCC1=[N+](CC(=O)c2ccc(C)cc2)CCn2c(C)ccc21 | inconclusive [inhibitor, single point] | – |
| COc1ccc(CNC(=O)CSc2nn3c(=O)c(C(C)(C)C)nnc3s2)cc1OC | inconclusive [inhibitor, single point] | – |
| O=C(NCCCN1CCCCC1)c1ccc(CS(=O)c2ccc(Cl)cc2)o1 (stereo not drawn) | inconclusive [inhibitor, partial curve, poor fit] | – |
| CC(=O)Nc1cccc(Nc2nc(-c3ccccc3F)nc3ccccc23)c1 | inconclusive [inhibitor, partial curve, poor fit] | – |
| Cc1ccc(NC(=S)N2CCCCCC2)c(C)c1 | inactive | – |
| CC(C)CC1Nc2ncnc(N3CCCCC3)c2N(Cc2ccc(Br)cc2)C1=O (stereo not drawn) | inconclusive [inhibitor, partial curve] | – |
| CC1CC(C)(C)CC2(C1)NC(=O)N(CC(=O)Nc1ccc(N3CCCCC3)cc1)C2=O (stereo not drawn) | inconclusive [inhibitor, single point] | – |
| O=C(OCn1nnc2ccccc2c1=O)c1ccc(N2CCOCC2)c([N+](=O)[O-])c1 | inconclusive [inhibitor, full curve] | – |
| CCCCCCCOc1ccc(C(=O)Nc2cccnc2)cc1 | inconclusive [inhibitor, single point] | – |
| Oc1c(Cl)cc(Cl)c(Cl)c1CN1CCOCC1 | inactive | – |
| CCOc1ccc(NC(=O)CN2CCN(CC(=O)Nc3ccc(Cl)c(C(F)(F)F)c3)CC2)cc1 | inconclusive [inhibitor, partial curve] | – |
